# Screen size: about 420,000 compounds; about 50,000 (12%) were called active. Inconclusive results, whose numbers are uncertain, are shown with a selection of clear calls. Calls come from the whole dose curve; as a rule, active = well fitted inhibition curve with a large enough effect; inconclusive = small, poorly fitted or top-dose-only effect; inactive = flat fitted curve, though single readings scatter. No potency is given beside an inconclusive call; the fits are too rough. Where a structure was tested more than once in an assay, its records may differ in their call.
# Assay: qHTS for Inhibitors of human tyrosyl-DNA phosphodiesterase 1 (TDP1): qHTS in cells in presence of CPT; note: nearly all actives have a fitted effect of over 55% in size
# Details: chicken DT40 Tdp1-/-;hTDP1 cells + 20 nM CPT, ATP luminescence, 48 h; activity change, negative = growth inhibition: at 46.2 µM (top of the series) unless noted
# Method in brief: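 Chicken DT40 Tdp1-/- cells complemented with human TDP1, 400 cells/well, exposed to compounds plus 20 nM camptothecin for at least 48 h at 37 C; viability read as ATP content by CellTiter-Glo luminescence.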
# % is set by controls: 0 for no effect and ±100 for the full control effect; potency is the fitted concentration of half-maximal effect; tags give direction and shape of the fitted curve.
Compound,"activity change, negative = growth inhibition",Potency
CSc1nc(N2CCN(C)CC2)c2ccccc2n1,inactive: 10.6%,
CC(C)CN1CCCC2(CCN(C(=O)Oc3ccccc3)CC2)C1,inactive: 4.21%,
CC1(O)CCC2C3CCC4=CC(=O)CCC4=C3C=CC21C (stereo not given),,active: 9.2 µM
COC(=O)C1=C(c2cc3ccccc3s2)C[C@@H]2CC[C@H]1N2C(=O)N1CCC(C)CC1,,active: 5.17 µM
CC1CC[C@@]2(OC1)OC1C(O)C3C4CC[C@H]5CC(O[C@@H]6O[C@@H](CO)[C@H](OC7OC(CO)C(O)C(OC8OCC(O)C(O)[C@H]8O)[C@@H]7O[C@@H]7OC(CO)[C@H](O)[C@@H](O[C@@H]8OC(CO)C(O)C(O)C8O)C7O)C(O)C6O)C(O)C[C@]5(C)C4CC[C@]3(C)C1C2C (stereo not given in full),,active: 2.31 µM
Nc1ccc([N+](=O)[O-])cc1O,,active: 24.3 µM
CN(C)c1cccc(C(=O)Nc2nc3ccc(S(=O)(=O)NC(C)(C)C)cc3s2)c1,,active: 10.3 µM
CCOc1ccc(CN2CCCC(C(=O)c3ccccc3OC)C2)cc1 (stereo not given),,"inconclusive [inhibitor, single point]"
O=c1c2ccccc2nc(-c2cccs2)n1-c1cnccn1,inactive: 7.25%,
Cc1c(C(=O)c2cccc3ccccc23)c2cccc3c2n1[C@H](CN1CCOCC1)CO3,,active: 2.91 µM
O=C(Nc1cc2c(cc1C(=O)c1ccc(Br)cc1)OCCO2)c1ccc(Cl)cc1,,active: 23.1 µM
O=S1(=O)N(Cc2ccccc2)CCCN1Cc1ccc(F)cc1Cl,,"inconclusive [inhibitor, single point]"
COc1ccc(C(O)C(C)NC(C)C(O)c2ccc(OC)cc2)cc1 (stereo not given),,"inconclusive [inhibitor, single point]"
CCCN(C/C=C/I)C1CCc2ccc(O)cc2C1 (stereo not given),,"inconclusive [inhibitor, single point]"
Cc1cccc(Cn2cc(C=O)c3ccccc32)c1,,"inconclusive [inhibitor, partial curve]"
CC(C)OCC(O)CN1CC2C[C@@H](C1)Cn1c2cccc1=O (stereo not given in full),inactive: 4.95%,
COP(=S)(OC)Oc1ccc([N+](=O)[O-])cc1,,active: 5.8 µM
CC1=CC(O)C(O)C2(C)C1CC1OC(=O)CC3C(C)C(O)C(=O)C2C13CO (stereo not given),,"inconclusive [inhibitor, single point]"
Cc1ccccc1C(=O)Nc1sc2c(c1C(=O)O)CCC(C(C)(C)C)C2 (stereo not given),,active: 10.3 µM
O=C(NCc1ccccc1)c1cccn(Cc2ccccc2)c1=O,,"inconclusive [inhibitor, single point]"
C=CCN1C(=O)C2(C(C(=O)OCC)=C(N)Oc3ccccc32)C2=C1CCCC2=O (stereo not given),inactive: -0.315%,
CC(C)c1ccc(Cc2cn3cc(-c4cc5ccccc5oc4=O)nc3s2)cc1,,active: 0.259 µM
O=c1oc2ccccc2c(O)c1C(CC(O)c1ccc(-c2ccc(Br)cc2)cc1)c1ccccc1 (stereo not given),,"inconclusive [inhibitor, single point]"
CN(C)c1cccc2c(C#N)ccc(N(C)C)c12,inactive: -1.28%,
CS(=O)(=O)c1ccc(C2=C(CNC(=O)c3ccncc3)[C@H]3CC[C@@H](C2)N3Cc2ccco2)cc1,inactive: 3.22%,

Compound,"activity change, negative = growth inhibition",Potency
O=C(CN1CCCC1)Nc1ccc(Cl)cc1C(=O)c1ccccc1,inconclusive: -31.5% [inhibitor],
O=C(COc1ccccc1Cl)N1CCCC(N2CCN(c3ccc(F)cc3)CC2)C1 (stereo not given),,"inconclusive [inhibitor, single point]"
CCOc1cc2c(cc1OCC)-n1cccc1C(c1cc(OC)ccc1F)NC2 (stereo not given),,active: 18.4 µM
CCOc1ccc(N2C(=O)NC(=O)/C(=C\c3ccccc3[N+](=O)[O-])C2=O)cc1,,"inconclusive [inhibitor, single point]"
CCCC12CN3CCN(CC(C3)/C1=N\NC(=O)c1ccncc1)C2,inactive: -17.1%,
CC/C(CC(c1ccccc1)c1c(O)c2ccccc2oc1=O)=N\NC(N)=S (stereo not given),,"inconclusive [inhibitor, single point]"
CCOP(=O)(OCC)C(Nc1cccc(C)c1)c1ccc(F)cc1 (stereo not given),,"inconclusive [inhibitor, partial curve]"
Cc1ccc2nsnc2c1-n1c(C)nc2ccccc2c1=O,,"inconclusive [inhibitor, single point]"
O=c1c2ccccc2ncn1-c1ccc([N+](=O)[O-])c(C(F)(F)F)c1,,"inconclusive [inhibitor, single point]"
Cc1cc(N(CCCl)CCCl)ccc1C=Cc1ccncn1,,active: 2.59 µM
CC(C)CN(CC(C)C)C(=O)C1C2c3ccccc3C(c3ccccc32)C1C(=O)O (stereo not given),inactive: -16.1%,
O=C(CSc1nc2ccccc2c(=O)n1-c1ccccc1)Nc1ccc2c(c1)CCC2,,"inconclusive [inhibitor, single point]"
CCOC(=O)[C@]12Cc3cc(C)ccc3[C@H]1N(C)C(=O)c1cc(OC)ccc12,,active: 20.6 µM
O=C(NCc1cccnc1)C(Cl)(Cl)Cl,inactive: 5.78%,
CC(=O)OC1CCC2(/C=N/O)C(=CCC3C4CCC(=O)C4(C)CCC32)C1 (stereo not given),inactive: -17.9%,
CNC(=O)NC(O)C(Cl)(Cl)Cl (stereo not given),,inactive
COC(=O)C1(C(=O)OC)C[C@H](c2ccc(OC)cc2)N(Cc2ccccc2OC)[C@@H]1c1ccccc1,,"inconclusive [inhibitor, single point]"
Brc1ccccc1Cn1c(-c2cncs2)nc2ccccc21,,"inconclusive [inhibitor, single point]"
COc1cc(/C=C/c2nc3ccccc3c(=O)n2-c2cccc(O)c2)ccc1O,,"inconclusive [inhibitor, partial curve, poor fit]"
CC(C)[C@H](NC(=O)[C@H](CCC(=O)O)NC(=O)[C@H](Cc1ccccc1)NC(=O)[C@H](C)NC(=O)[C@@H](N)Cc1ccc(O)cc1)C(=O)N[C@H](C(=O)NCC(N)=O)C(C)C,,"inconclusive [inhibitor, single point]"
O=c1[nH]c(=S)[nH]c(O)c1C(c1ccccn1)c1c(O)[nH]c(=S)[nH]c1=O,inactive: -17.4%,
Clc1ccc(Cn2ccnc2)cn1,inactive: 24.4%,
Cc1cccc(CN2CCN(Cc3ccc(Cl)cc3)CC2)c1,,"inconclusive [inhibitor, single point]"
CCNC(=O)O/N=C(\C)c1sc(-c2ccc(Cl)cc2)nc1C,,active: 25.9 µM
CCN[C@@H](C)Cc1cccc(C(F)(F)F)c1,,inactive

Compound,"activity change, negative = growth inhibition",Potency
COc1ccc(CCNCc2ccccc2F)cc1,inactive: -24.9%,
Cc1c(N=Cc2c(O)n(CCc3ccc(F)cc3)c(=O)[nH]c2=O)c(=O)n(-c2ccccc2)n1C,,"inconclusive [inhibitor, partial curve]"
Cc1cc(OC(C)C(=O)NCc2ccncc2)c2c3c(c(=O)oc2c1)CCCC3 (stereo not given),,active: 23.1 µM
CC(C)Nc1ccc(Nc2ccccc2)cc1,,active: 6.51 µM
NCCc1cccc(O)c1,,inactive
Cc1cc(C(=O)NP(=O)(N2CCOCC2)N2CCOCC2)c(C)n1C1CC1,inactive: 0.714%,
CCC(=O)N1N=C(c2c(O)n(CCc3ccccc3)c(=O)[nH]c2=O)CC1c1ccc(OC)c(OC)c1 (stereo not given),,"inconclusive [inhibitor, single point]"
O=C1NC(=S)SC1=Cc1ccc(N(CCCl)CCCl)cc1,,active: 13 µM
CC(=O)OC1C(O)C2=C3C4(C)C1C(C)(C)C(=O)CC4C3(O)C(OC(C)=O)C1(CC1C)C2=O (stereo not given),,active: 5.8 µM
Cc1[nH]c2ccccc2c1CCN,inactive: -28.7%,
CC(=NCc1ccc2c(c1)OCO2)c1c(O)n(Cc2ccccc2)c(=O)[nH]c1=O,inconclusive: -30.1% [inhibitor],
Cc1nc2ccc(Cl)cc2c(=O)n1-c1cccc(Cl)c1,,"inconclusive [inhibitor, single point]"
CC(=O)N1c2ccc(S(=O)(=O)NCC3CCC(C(=O)Nc4cc(C)cc(C)c4)CC3)cc2CC1C (stereo not given),,active: 20.6 µM
Cc1ccc(S(=O)(=O)N2CCCC(C(=O)N3CCC4(CC3)OCCO4)C2)cc1 (stereo not given),,"inconclusive [inhibitor, partial curve, poor fit]"
CC(=O)N1CCN(c2ccc(OCC3CO[C@@](Cn4ccnc4)(c4ccc(Cl)cc4Cl)O3)cc2)CC1 (stereo not given in full),,active: 7.31 µM
O=C(c1cc2c(s1)-c1ccccc1OC2)N1CCC2(CC1)OCCO2,,"inconclusive [inhibitor, single point]"
C=CCn1c(O)c(N=Nc2c(C)n(C)n(-c3ccccc3)c2=O)c(=O)[nH]c1=S,,active: 16.4 µM
O=C1CN(O)C(c2ccccc2)=c2cc(Br)ccc2=N1,inactive: -0.227%,
O=c1ccc2c(O)c3ccoc3cc2o1,,inactive
CC(=NCCCN1CCCCC1)c1c(O)n(Cc2ccccc2)c(=O)[nH]c1=O,inactive: -9.68%,
COc1ccc(NS(=O)(=O)c2ccc3c(c2)oc(=O)n3C)cc1Cl,,active: 13 µM
C=C(CC1CC(O)[C@]2(C)OC3CC4OC5C[C@]6(C)O[C@]7(C)CCC8OC9C[C@]%10(C)OC%11C(C)=CC(=O)OC%11CC%10OC9C[C@@H](C)C8OC7CC6O[C@]5(C)C/C=C\C4OC3CC2O1)C(=O)O (stereo not given in full),,"inconclusive [inhibitor, single point]"
O=c1c2ccccc2nc(/C=C/c2ccco2)n1-c1ccccc1O,,active: 14.6 µM
Cc1ccsc1C(=O)C1CCCN(Cc2sc(N(C)C)nc2Cl)C1 (stereo not given),,"inconclusive [inhibitor, single point]"
COc1cc([C@@H]2c3cc4c(cc3[C@H](O)[C@H]3COC(=O)[C@@H]23)OCO4)cc(OC)c1OC,,active: 0.0708 µM

# — PubChem BioAssay AID686979 (National Center for Advancing Translational Sciences (NCATS), 2013)
